The other results are listed elsewhere or left out.
These compounds were tested on HSkMC (human skeletal muscle cells) (assay: cytotoxicity call (relative viability < 0.9)). Settings: 10 µM.

Compound	cytotoxicity call
CN1C2CCC1CC(OC(=O)C(CO)c1ccccc1)C2 (stereo not drawn)	inactive
[N-]=[N+]=NCc1ccccc1C[C@@]1(C(=O)NCCN2CCOCC2)N=C(c2ccc(OCCCO)cc2)O[C@@H]1c1ccccc1N=[N+]=[N-]	inactive
C[C@H]1O[C@H](C[N+](C)(C)C)C[C@@H]1O	inactive
NC1N[C@H]2CCCC[C@@H]2N1	inactive
CC1(C)CCNC1=O	inactive
CCOC(=O)C1C(C=C(C)C)C1(C)C (stereo not drawn)	inactive
CC(C)=CCC[C@]1(C)C=Cc2c(O)c3c(c(CC=C(C)C)c2O1)O[C@]12[C@H](C[C@@H]4C[C@H]1C(C)(C)O[C@]2(C/C=C(/C)C(=O)O)[C@@H]4O)C3=O	inactive
CO[C@@H]1C[C@@H](C[C@H]2CC[C@H](C)[C@H]([C@@H](C)C(=O)O)O2)O[C@]2(O[C@](C)([C@H]3CC[C@@](C)([C@H]4O[C@@H]([C@H]5O[C@@](O)(CO)[C@H](C)C[C@@H]5C)C[C@@H]4C)O3)C[C@H]2C)[C@@H]1C	active
CCCC(C)(COC(N)=O)COC(=O)NC(C)C (stereo not drawn)	inactive
O=C(NC(=O)c1c(F)cccc1F)Nc1ccc(Cl)cc1	inactive
C=CCN=C=S	inactive
CN1C2CCC1CC(OC(=O)C(CO)c1ccccc1)C2.O=S(=O)(O)O (stereo not drawn)	inactive
NCC(=O)Nc1ccc(Br)cc1C(=O)c1ccccc1	inactive
CC(=O)N[C@@H]1CCSC1=O	inactive
C[C@@H](N)Cc1ccc(O)cc1	inactive
Cc1c[nH]cn1	inactive
CN1C(=O)N(C)C2C1N(C)C(=O)N2C (stereo not drawn)	inactive
Cc1ccc2n[nH]c(CN)c2c1	inactive

From the antibiotic and cytotoxicity screens of Wong et al. (2023)
